We go through three molecules from patent publication US20090232811A1 (Hoffmann-La Roche, published 2009).

The target of experiment [1] is T1, recombinant human ANGPT2 (full-length ANGPT2-His protein, R&D Systems) (human, UniProt O15123 19-496).
T1 construct: Bought protein; also called huANGPT2; human Angiopoietin-2; not shown: His tag
T1 sequence (looked up): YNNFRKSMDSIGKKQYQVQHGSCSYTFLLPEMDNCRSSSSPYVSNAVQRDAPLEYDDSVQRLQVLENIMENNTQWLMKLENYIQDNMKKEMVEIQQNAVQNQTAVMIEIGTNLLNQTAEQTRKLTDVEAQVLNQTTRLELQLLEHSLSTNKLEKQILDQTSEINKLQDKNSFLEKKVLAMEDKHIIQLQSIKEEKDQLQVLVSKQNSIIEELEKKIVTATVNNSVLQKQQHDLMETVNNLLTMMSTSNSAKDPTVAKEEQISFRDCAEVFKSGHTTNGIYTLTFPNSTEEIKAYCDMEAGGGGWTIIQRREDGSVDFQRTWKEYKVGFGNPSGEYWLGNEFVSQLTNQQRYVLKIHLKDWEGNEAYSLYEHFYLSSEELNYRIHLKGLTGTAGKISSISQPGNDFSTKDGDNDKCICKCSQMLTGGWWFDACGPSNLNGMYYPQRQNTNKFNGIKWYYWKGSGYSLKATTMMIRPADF
The experiment can be described thus: SPR (Biacore), ANGPT2 binding assay.

Experiment [2] has as its target T1, recombinant human ANGPT2 (full-length …). The experiment can be described thus: SPR (Biacore), ANGPT2 binding assay; estimated, mean from two determinations.
Experiment [3] shares this target. Description: SPR (Biacore T100), antibody captured, ANGPT2-His in solution; relative estimation.
The target is the same in experiment [4]. Description: ANGPT2 binding ELISA (plate coated with recombinant human ANGPT2) [left panel].
Experiment [5] has the same target. Description: ANGPT2 binding ELISA (plate coated with recombinant human ANGPT2) [right panel].

B1: wildtype <ANGPT2> antibody (antibody)
heavy: EVQLVQSGGGVVQPGRSLRLSCAASGFTFSSYGMHWVRQAPGKGLEWVSYISSSGSTIYYADSVKGRFTISRDNAKNSLYLQMNSLRAEDTAVYYCARDLLDYDILTGYGYWGQGTLVTVSS[in this place human IgG1 constant region]
light: not shown
notes: Human IgG1/kappa, from WO 2006/045049; also called <ANGPT2> wildtype antibody; original wildtype <ANGPT2> antibody
On to B1, for which the koff in experiment [1] is 0.0002 s⁻¹. Also, in experiment [1], the kon was 526000 M⁻¹ s⁻¹. The Kd in experiment [2] was about 0.038 nM; in experiment [3] it was 0.012 nM. In experiment [4], the EC50 worked out at 0.0984 mg/L.

B2: <ANGPT2> VL-VH(G)/CL-CH1(G) exchange antibody (antibody)
heavy: not shown
light: EVQLVQSGGGVVQPGRSLRLSCAASGFTFSSYGMHWVRQAPGKGLEWVSYISSSGSTIYYADSVKGRFTISRDNAKNSLYLQMNSLRAEDTAVYYCARDLLDYDILTGYGYWGQGTLVTVSSASTKGPSVFPLAPSSKSTSGGTAALGCLVKDYFPEPVTVSWNSGALTSGVHTFPAVLQSSGLYSLSSVVTVPSSSLGTQTYICNVNHKPSNTKVDKKVEPKSGC
notes: Monospecific, bivalent exchange antibody with an additional glycine at the C-terminus of the exchanged Fab domains; also called <ANGPT2> VL-VH(G)/CL-CH1(G) antibody
Regarding B2, in experiment [1], the Kd came to 0.445 nM, the koff is 0.00236 s⁻¹ and the kon was 5.29e+06 M⁻¹ s⁻¹. Also, in experiment [2], the Kd is about 0.045 nM.

B3: monospecific, bivalent <ANGPT2> VL-VH/CL-CH1 exchange antibody (antibody)
heavy: not shown
light: EVQLVQSGGGVVQPGRSLRLSCAASGFTFSSYGMHWVRQAPGKGLEWVSYISSSGSTIYYADSVKGRFTISRDNAKNSLYLQMNSLRAEDTAVYYCARDLLDYDILTGYGYWGQGTLVTVSSASTKGPSVFPLAPSSKSTSGGTAALGCLVKDYFPEPVTVSWNSGALTSGVHTFPAVLQSSGLYSLSSVVTVPSSSLGTQTYICNVNHKPSNTKVDKKVEPKSC
notes: HC* = VL-CL-Hinge-CH2-CH3; LC* = VH-CH1; also called <ANGPT> VL-VH/CL-CH1 exchange antibody; VL-VH/CL-CH1 exchange <ANGPT2> antibody Mab536
On to B3, for which the Kd in experiment [3] is 0.013 nM. The EC50 in experiment [5] came to 0.083 mg/L.
